# Test results from the supplement of paper PMC8728848.
# The other results are listed elsewhere or left out.
# How the values were obtained:
# Experiment in all cases: glycan array binding signal (z-score within array); higher = stronger binding
# Details in all cases: glycan notation: IUPAC condensed, linker removed
# Gal(b1-2)Gal = biological target: Gal(b1-2)Gal
# Summary of the method: (§1)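 Negative Z-scores can be read as non-binding. The Z-score is calculated within each array and then averaged across arrays of one protein sequence at different concentrations or buffers and across linkers. Arrays, 3228 in all, were curated from the Consortium for Functional Glycomics database and kept only where the protein sequence was available.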
# Gal(b1-3)Gal = biological target: Gal(b1-3)Gal
# Summary of the method: as §1
# Gal(b1-3)Gal(b1-4)GlcNAc = biological target: Gal(b1-3)Gal(b1-4)GlcNAc
# Summary of the method: as §1
# Gal(b1-3)GalNAc = biological target: Gal(b1-3)GalNAc
# Summary of the method: as §1
# [1] = biological target: Gal(b1-3)GalNAc(a1-3)[Fuc(a1-2)]Gal(b1-4)Glc
# Summary of the method: as §1
# [2] = biological target: Gal(b1-3)GalNAc(a1-3)[Fuc(a1-2)]Gal(b1-4)GlcNAc
# Summary of the method: as §1
# Gal(b1-3)GalNAc(b1-3)Gal = biological target: Gal(b1-3)GalNAc(b1-3)Gal
# Summary of the method: as §1
# [3] = biological target: Gal(b1-3)GalNAc(b1-3)Gal(a1-4)Gal(b1-4)Glc
# Summary of the method: as §1
# [4] = biological target: Gal(b1-3)GalNAc(b1-4)Gal(b1-4)Glc
# Summary of the method: as §1
# [5] = biological target: Gal(b1-3)GalNAc(b1-4)[Neu5Ac(a2-3)]Gal(b1-4)Glc
# Summary of the method: as §1
# Gal(b1-3)GlcNAc = biological target: Gal(b1-3)GlcNAc
# Summary of the method: as §1
# [6] = biological target: Gal(b1-3)GlcNAc(a1-3)Gal(b1-4)GlcNAc
# Summary of the method: as §1
# [7] = biological target: Gal(b1-3)GlcNAc(a1-6)Gal(b1-4)GlcNAc
# Summary of the method: as §1
# Gal(b1-3)GlcNAc(b1-2)Man = biological target: Gal(b1-3)GlcNAc(b1-2)Man
# Summary of the method: as §1
# [8] = biological target: Gal(b1-3)GlcNAc(b1-2)Man(a1-3)[Gal(b1-3)GlcNAc(b1-2)Man(a1-6)]Man(b1-4)GlcNAc(b1-4)GlcNAc
# Summary of the method: as §1
# [9] = biological target: Gal(b1-3)GlcNAc(b1-2)Man(a1-3)[Gal(b1-3)GlcNAc(b1-2)Man(a1-6)]Man(b1-4)GlcNAc(b1-4)[Fuc(a1-6)]GlcNAc
# Summary of the method: as §1
# [10] = biological target: Gal(b1-3)GlcNAc(b1-2)Man(a1-3)[GlcNAc(b1-4)][Gal(b1-3)GlcNAc(b1-2)Man(a1-6)]Man(b1-4)GlcNAc(b1-4)GlcNAc
# Summary of the method: as §1
# [11] = biological target: Gal(b1-3)GlcNAc(b1-2)[Gal(b1-3)GlcNAc(b1-6)]Man(a1-6)[Gal(b1-3)GlcNAc(b1-2)Man(a1-3)]Man(b1-4)GlcNAc(b1-4)GlcNAc
# Summary of the method: as §1
# [12] = biological target: Gal(b1-3)GlcNAc(b1-3)Gal(b1-3)GlcNAc
# Summary of the method: as §1
# [13] = biological target: Gal(b1-3)GlcNAc(b1-3)Gal(b1-4)Glc
# Summary of the method: as §1
# [14] = biological target: Gal(b1-3)GlcNAc(b1-3)Gal(b1-4)GlcNAc
# Summary of the method: as §1
# [15] = biological target: Gal(b1-3)GlcNAc(b1-3)Gal(b1-4)GlcNAc(b1-2)Man(a1-3)[Gal(b1-3)GlcNAc(b1-3)Gal(b1-4)GlcNAc(b1-2)Man(a1-6)]Man(b1-4)GlcNAc(b1-4)GlcNAc
# Summary of the method: as §1
# [16] = biological target: Gal(b1-3)GlcNAc(b1-3)Gal(b1-4)GlcNAc(b1-2)[Gal(b1-3)GlcNAc(b1-3)Gal(b1-4)GlcNAc(b1-6)]Man(a1-6)[Gal(b1-3)GlcNAc(b1-3)Gal(b1-4)GlcNAc(b1-2)Man(a1-3)]Man(b1-4)GlcNAc(b1-4)[Fuc(a1-6)]GlcNAc
# Summary of the method: as §1
# [17] = biological target: Gal(b1-3)GlcNAc(b1-3)Gal(b1-4)GlcNAc(b1-3)Gal(b1-4)GlcNAc(b1-2)[Gal(b1-3)GlcNAc(b1-3)Gal(b1-4)GlcNAc(b1-3)Gal(b1-4)GlcNAc(b1-6)]Man(a1-6)[Gal(b1-3)GlcNAc(b1-3)Gal(b1-4)GlcNAc(b1-3)Gal(b1-4)GlcNAc(b1-2)Man(a1-3)]Man(b1-4)GlcNAc(b1-4)[Fuc(a1-6)]GlcNAc
# Summary of the method: as §1
# [18] = biological target: Gal(b1-3)GlcNAc(b1-3)Gal(b1-4)GlcNAc(b1-6)[Gal(b1-3)GlcNAc(b1-3)]Gal(b1-4)Glc
# Summary of the method: as §1
# [19] = biological target: Gal(b1-3)GlcNAc(b1-3)Gal(b1-4)[Fuc(a1-3)]GlcNAc
# Summary of the method: as §1
# [20] = biological target: Gal(b1-3)GlcNAc(b1-3)Gal(b1-4)[Fuc(a1-3)]GlcNAc(b1-6)[Gal(b1-3)GlcNAc(b1-3)]Gal(b1-4)Glc
# Summary of the method: as §1
# [21] = biological target: Gal(b1-3)GlcNAc(b1-3)GalNAc
# Summary of the method: as §1
# [22] = biological target: Gal(b1-3)GlcNAc(b1-6)Gal(b1-4)GlcNAc
# Summary of the method: as §1
# [23] = biological target: Gal(b1-3)GlcNAc(b1-6)GalNAc
# Summary of the method: as §1
# [24] = biological target: Gal(b1-3)GlcNAc(b1-6)[Gal(b1-3)]GalNAc
# Summary of the method: as §1
# Gal(b1-3)GlcNAc6S = biological target: Gal(b1-3)GlcNAc6S
# Summary of the method: as §1
# [25] = biological target: Gal(b1-3)[Fuc(a1-4)]GlcNAc
# Summary of the method: as §1
# [26] = biological target: Gal(b1-3)[Fuc(a1-4)]GlcNAc(b1-2)Man
# Summary of the method: as §1
# [27] = biological target: Gal(b1-3)[Fuc(a1-4)]GlcNAc(b1-2)Man(a1-3)[Gal(b1-3)[Fuc(a1-4)]GlcNAc(b1-2)Man(a1-6)]Man(b1-4)GlcNAc(b1-4)[Fuc(a1-6)]GlcNAc
# Summary of the method: as §1
# [28] = biological target: Gal(b1-3)[Fuc(a1-4)]GlcNAc(b1-3)Gal(b1-3)[Fuc(a1-4)]GlcNAc
# Summary of the method: as §1
# [29] = biological target: Gal(b1-3)[Fuc(a1-4)]GlcNAc(b1-3)Gal(b1-4)[Fuc(a1-3)]GlcNAc
# Summary of the method: as §1
binder,measurement,setting,value
Si Bti9 1b-HA (Solanum lycopersicum) (protein) MFESRPRSVLSLGVFVILVYLSSVPLPVNSQCNRGCDLALASFYVWRGSNLTLISEMFSTSIADIVSYNNRDNIPNQDSVIAGTRINIPFRCDCLNDGEVLGHAFPYRVKSGDTYDLVARNYSDLTTAQWMMKFNSYPENNIPNTVNLSVVVNCSCGNSDVSKDFGLFVTYPVRAEDNLTSVASAANVSEDIIRRYNPAAVSILDIGQGIIYIPGRDRNGNFPPLPTSTDGLSGGAKAPLFFNPAFLYKVVELKLAGRSRTSGYPYDVPDYAGYPYDVPDYALEVLFQ,glycan array binding signal (z-score),Gal(b1-2)Gal,0.983
same,glycan array binding signal (z-score),Gal(b1-3)Gal,-0.244
same,glycan array binding signal (z-score),Gal(b1-3)Gal(b1-4)GlcNAc,-0.198
same,glycan array binding signal (z-score),Gal(b1-3)GalNAc,-0.104
same,glycan array binding signal (z-score),[1],-0.047
same,glycan array binding signal (z-score),[2],-0.454
same,glycan array binding signal (z-score),Gal(b1-3)GalNAc(b1-3)Gal,-0.327
same,glycan array binding signal (z-score),[3],-0.431
same,glycan array binding signal (z-score),[4],-0.283
same,glycan array binding signal (z-score),[5],-0.122
same,glycan array binding signal (z-score),Gal(b1-3)GlcNAc,-0.351
same,glycan array binding signal (z-score),[6],-0.16
same,glycan array binding signal (z-score),[7],-0.324
same,glycan array binding signal (z-score),Gal(b1-3)GlcNAc(b1-2)Man,-0.408
same,glycan array binding signal (z-score),[8],3.24
same,glycan array binding signal (z-score),[9],1.03
same,glycan array binding signal (z-score),[10],3.72
same,glycan array binding signal (z-score),[11],2.51
same,glycan array binding signal (z-score),[12],-0.271
same,glycan array binding signal (z-score),[13],-0.456
same,glycan array binding signal (z-score),[14],-0.437
same,glycan array binding signal (z-score),[15],-0.204
same,glycan array binding signal (z-score),[16],0.333
same,glycan array binding signal (z-score),[17],0.38
same,glycan array binding signal (z-score),[18],-0.466
same,glycan array binding signal (z-score),[19],-0.109
same,glycan array binding signal (z-score),[20],-0.657
same,glycan array binding signal (z-score),[21],-0.393
same,glycan array binding signal (z-score),[22],-0.543
same,glycan array binding signal (z-score),[23],0.049
same,glycan array binding signal (z-score),[24],-0.205
same,glycan array binding signal (z-score),Gal(b1-3)GlcNAc6S,0.447
same,glycan array binding signal (z-score),[25],-0.408
same,glycan array binding signal (z-score),[26],0.574
same,glycan array binding signal (z-score),[27],0.058
same,glycan array binding signal (z-score),[28],-0.373
same,glycan array binding signal (z-score),[29],-0.223
